Assay results published in PubChem BioAssay (NCATS).
Some of the results follow. Shown are side measurements of this screen, not its main read-out; they come without a call. Most of these compounds were active or inconclusive in the main read-out, so they are no random draw. Potencies come from curve fits of mixed quality, noted in brackets.

Test: Cell-based coincidence reporter assay to measure PMP22 gene transcription in S16 Pmp22-F2sN cells - Confirmatory screen (AID 1508646)
Conditions: S16 Schwann cells Pmp22-F2sN, dual luciferase, 24 h; measured here: FLuc reporter channel
Procedure, shortened: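 S16 Schwann cells carrying a bioluminescent reporter in the Pmp22 3' UTR (Pmp22-F2sN) were treated with compounds for 24 h at 37C, then lysed; FLuc and then NLuc luminescence were read sequentially with a dual-luciferase kit on a CCD imager.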
Tags describe the fitted curve by direction and shape.

Compound | AC50
COc1ccc(NC(=O)CCCn2c(=O)c3cccn3c3cccnc32)cc1Cl | 9.68 µM [falling, partial curve, poor fit]
CCNc1nc(NC(C)(C)C)nc(Oc2ccc(=O)n(-c3ccccc3)n2)n1 | 13.7 µM [falling, full curve, poor fit]
O=C(c1c2c(nc3ccccc13)C(=O)N(C1CCCCC1)C2)N1CCN(c2ccc(F)cc2)CC1 | 48.5 µM [falling, single point]
COc1ccccc1Nc1ncnc2scc(-c3ccc(F)cc3)c12 | 24.3 µM [falling, partial curve]
O=C(NCCSc1c(-c2ccccc2)[nH]c2ccccc12)c1ccc(S(=O)(=O)N2CCOCC2)cc1 | 15.3 µM [falling, single point]
CCN(C(=O)CSc1nc(-c2ccccc2)no1)c1cccc(C)c1 | 24.3 µM [rising, single point]
COc1ccc(C2CC(=O)N(CC(=O)Nc3cccc(C)c3C)c3ccccc3S2)cc1OC (stereo not given) | 21.7 µM [falling, partial curve]
CCOc1ccc(C(=O)N2CCc3cc(OC)c(OC)cc3C2COc2ccc3c(C)cc(=O)oc3c2)cc1OCC (stereo not given) | 8.62 µM [falling, partial curve, poor fit]
CCc1ccc(N2C(=O)CSC23C(=O)N(Cc2cccc(OC)c2)c2ccccc23)cc1 (stereo not given) | 34.3 µM [falling, single point]
COc1ccc(-n2c(C)nnc2SCc2nc(-c3ccc(OC)c(OC)c3)no2)cc1 | 0.385 µM [falling, full curve, poor fit]
COCCNC(=O)c1cccc(Nc2nc3ccccc3n3nnnc23)c1 | 9.68 µM [falling, full curve]
COCCCNC(=O)c1ccc(Cn2c(=O)c3ccccc3n(Cc3ccc(Cl)cc3)c2=O)cc1 | 15.3 µM [falling, partial curve, poor fit]
COc1ccc(NC(=O)N2CCc3c(sc4c3CCCC4)C2c2ccc(F)cc2)cc1 (stereo not given) | 5.44 µM [falling, partial curve, poor fit]
Cc1ccc(NC(=O)CSc2nc3n[nH]c(C)c3c(=N)n2-c2ccccc2C)cc1C | 24.3 µM [falling, partial curve, poor fit]
Cc1ccccc1Cn1nnc2c(=O)[nH]c(C3CCN(C(=O)c4ccc(F)cc4)CC3)nc21 | 21.7 µM [falling, partial curve]
CCOc1ccc(CN2CCc3nc(N4CCN(c5ccccc5OC)CC4)ncc3C2)cc1OC | 21.7 µM [falling, partial curve, poor fit]
COc1ccc(-c2noc(CSc3nnc(C)n3-c3ccc(C)cc3)n2)cc1OC | 6.11 µM [falling, partial curve, poor fit]
COc1ccc(-c2c(C)nn3c(N4CCN(c5cc(Cl)ccc5C)CC4)cc(C)nc23)cc1OC | 17.2 µM [falling, partial curve, poor fit]
CN(C1CCCCC1)S(=O)(=O)c1ccc2c(c1)c(=O)c(C(=O)NCc1ccc(Cl)cc1)cn2C | 17.2 µM [falling, partial curve, poor fit]

Same assay, conditions: S16 Schwann cells Pmp22-F2sN, dual luciferase, 24 h; measured here: NLuc reporter channel

Compound | AC50
COc1ccc(-c2noc(CSc3nnc(C)n3-c3ccc(F)cc3)n2)cc1 | 12.2 µM [falling, full curve, poor fit]
O=C(c1ccc2c(c1)N(Cc1ccc(F)cc1)C(=O)c1ccccc1S2(=O)=O)N1CCN(c2ccccn2)CC1 | 27.3 µM [falling, partial curve]
CCOc1ccc(-n2ccnc2SCC(=O)Nc2nc3ccc(C)cc3s2)cc1 | 3.43 µM [falling, full curve, poor fit]
Cc1ccc(C)n1-c1nnc(N2CCCC(C(=O)Nc3ccccc3Br)C2)s1 (stereo not given) | 27.3 µM [falling, single point]
CCN1CCN(c2ccc(NS(=O)(=O)c3c(C)nc4sccn4c3=O)cc2Cl)CC1 | 6.11 µM [falling, full curve, poor fit]
COc1ccc(OC)c(NC(=O)c2c(NCc3sccc3C)sc3c2CCCCC3)c1 | 30.6 µM [falling, partial curve]
CC(=O)c1cccc(Nc2nc(-c3ccccc3Cl)nc3ccccc23)c1 | 19.3 µM [falling, partial curve]
CCOc1ccc(/C=C/c2nc(C#N)c(NCc3ccccc3)o2)cc1 | 19.3 µM [falling, partial curve, poor fit]
Cc1ccc(NC(=O)CSc2nc(-c3ccco3)cc(C(F)(F)F)n2)cc1 | 7.69 µM [falling, partial curve, poor fit]
COc1cc(OC)c(OC)cc1/C=C/c1nc2cc3ccccc3cc2c(=O)n1-c1ccc(F)cc1F | 21.7 µM [falling, partial curve]
COc1ccc(NC(=O)c2ccc3c(c2)c(C)c(C)n3Cc2ccc(F)cc2)cc1 | 13.7 µM [falling, partial curve, poor fit]
Cn1c(=O)c2c(-c3ccccc3Br)n(C(C)(C)C)cc2n(C)c1=O | 8.62 µM [falling, partial curve, poor fit]
O=C(Nc1ccc(Br)cc1F)N1CC=C(c2c[nH]c3ccccc23)CC1 | 8.62 µM [falling, full curve]
COc1ccc(N(C(=O)c2cc(OC)c(OC)c(OC)c2)S(=O)(=O)c2ccc(C)cc2)cc1 | 2.43 µM [falling, full curve, poor fit]
CC(C)OCCCNc1ncnc2sc3c(c12)CCCC3 | 9.68 µM [falling, full curve, poor fit]
Cc1cccc(/C=C(\C#N)c2nc3ccccc3c(=O)[nH]2)c1 | 0.544 µM [rising, single point]
CCOc1ccc(C(=O)Nc2ccc3nc(SCCOc4ccccc4)sc3c2)cc1 | 30.6 µM [falling, partial curve, poor fit]
Cc1ccc(-c2csc(-c3cc4c([nH]c3=O)CC(c3ccccc3)CC4=O)n2)cc1 (stereo not given) | 4.32 µM [falling, full curve]
COc1ccc(C)cc1NC(=O)c1cc(S(=O)(=O)N2CCN(c3cccc(C)c3C)CC2)ccc1F | 7.69 µM [falling, partial curve]
CCN(C(=O)c1cc2c(s1)-c1ccccc1OC2)c1cccc(C(F)(F)F)c1 | 43.2 µM [falling, single point]
CCN(c1ccccc1)S(=O)(=O)c1ccc2[nH]cc(C(=O)NCc3ccc(C)cc3)c(=O)c2c1 | 43.2 µM [falling, single point]
